Measurements: the BET-seq Pho4 binding data (Le et al. 2018)
This is one part of the list. Values were computed here from the reads of four pooled replicates and scatter widely.

biological target: T1, Pho4 (S. cerevisiae) (UniProt P07270); test: relative binding free energy (BET-seq); higher = weaker binding; conditions: reference: library average
T1 sequence: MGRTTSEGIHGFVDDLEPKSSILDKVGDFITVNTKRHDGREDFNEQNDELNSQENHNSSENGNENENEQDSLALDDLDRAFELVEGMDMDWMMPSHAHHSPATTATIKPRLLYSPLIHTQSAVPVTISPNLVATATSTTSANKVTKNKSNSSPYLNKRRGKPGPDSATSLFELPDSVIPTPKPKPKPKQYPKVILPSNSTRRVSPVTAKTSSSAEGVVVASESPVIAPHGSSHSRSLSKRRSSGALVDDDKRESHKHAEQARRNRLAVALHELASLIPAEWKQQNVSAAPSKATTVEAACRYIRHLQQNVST

Sequence	relative binding free energy
TTGGACACGTGTAGTC	0.13 kcal/mol
GAATCCACGTGGGGAG	0.09 kcal/mol
TGTCGCACGTGTACGG	-0.13 kcal/mol
GTGGTCACGTGCTGAA	0 kcal/mol
TTGCACACGTGGGTGG	-0.07 kcal/mol
TGAGGCACGTGAGTGT	0.19 kcal/mol
AGGTCCACGTGATTAG	0.2 kcal/mol
TGGTCCACGTGTGGAT	0.11 kcal/mol
TGCGGCACGTGTGTAC	-0.05 kcal/mol
TTGGGCACGTGTCGGC	-0.04 kcal/mol
GAGGTCACGTGTAAAT	0.27 kcal/mol
AATAGCACGTGTATGA	-0.06 kcal/mol
TTGCTCACGTGGAGAG	0.27 kcal/mol
GGTTTCACGTGTGGCT	0.34 kcal/mol
AAGAGCACGTGATCGG	0.12 kcal/mol
ATGGTCACGTGTAGCT	0.2 kcal/mol
GTATTCACGTGGAGAA	0.29 kcal/mol
AAAGGCACGTGAGTTT	0.13 kcal/mol
GTAATCACGTGAGTAG	0.47 kcal/mol
TTGTTCACGTGTGGTT	0.33 kcal/mol
TCATGCACGTGAGGGA	0.16 kcal/mol
TTAGGCACGTGCGGGT	-0.19 kcal/mol
GAGTGCACGTGTGCAG	0.26 kcal/mol

Sequence	relative binding free energy
GTGAACACGTGTTATG	0.03 kcal/mol
AGGGGCACGTGTAGGC	-0.23 kcal/mol
GCATGCACGTGGTGTG	-0.06 kcal/mol
CTTGTCACGTGTATTG	0.08 kcal/mol
TTGTCCACGTGAGGGC	0.24 kcal/mol
CGCGGCACGTGTATGG	-0.13 kcal/mol
TTTGCCACGTGGTATA	-0.22 kcal/mol
GATATCACGTGTTTGT	0.09 kcal/mol
TAGTACACGTGGGAGT	-0.05 kcal/mol
TTGCGCACGTGGAGTA	-0.26 kcal/mol
TTGGTCACGTGTCGCG	0.04 kcal/mol
CCTGACACGTGGGGTG	-0.17 kcal/mol
ATTGTCACGTGCGTAT	-0.02 kcal/mol
ACATGCACGTGGTGGG	-0.12 kcal/mol
GAGCACACGTGTGGGG	0.1 kcal/mol
GTAGGCACGTGTTTAG	-0.16 kcal/mol
GAATGCACGTGAGTGA	0.18 kcal/mol
GGATTCACGTGTAGAT	0.51 kcal/mol
GGGATCACGTGGCTGG	0.1 kcal/mol
ACGTTCACGTGTGCGT	0.18 kcal/mol
TGGCTCACGTGTATGA	0.12 kcal/mol
TGAGGCACGTGTGTTC	-0.28 kcal/mol
GTGGTCACGTGCATTT	0.24 kcal/mol

Sequence	relative binding free energy
AGGCGCACGTGGGACG	-0.09 kcal/mol
CGTTTCACGTGCTTGT	0.16 kcal/mol
CTGATCACGTGGCTGG	0.06 kcal/mol
GGGAGCACGTGGGACG	-0.23 kcal/mol
TTTGTCACGTGCGTAT	0.04 kcal/mol
CTGGGCACGTGGTGTC	-0.1 kcal/mol
GGTGACACGTGTGATT	0.04 kcal/mol
GGGGGCACGTGTACGT	-0.09 kcal/mol
ACTTTCACGTGTTTGG	0.13 kcal/mol
GGAGTCACGTGTTGCA	0.06 kcal/mol
TGGGTCACGTGCTCTG	-0.12 kcal/mol
GAAGGCACGTGGATTT	-0.06 kcal/mol
GTTTGCACGTGACATG	0.13 kcal/mol
CGTGGCACGTGGTTTG	-0.13 kcal/mol
TAGAGCACGTGGAAGT	-0.15 kcal/mol
GTTTGCACGTGGACGT	0.11 kcal/mol
TGTGTCACGTGGACGG	0.09 kcal/mol
AGTGGCACGTGCGTCT	-0.2 kcal/mol
GACAGCACGTGGGGGT	-0.15 kcal/mol
TGTAGCACGTGATGGG	0.08 kcal/mol
AGAGGCACGTGATGGG	0.1 kcal/mol
TAGTACACGTGGTTCG	0.03 kcal/mol
GCTTACACGTGTGGTG	0.08 kcal/mol

Sequence	relative binding free energy
GTGGTCACGTGTGTTA	0.13 kcal/mol
ACTTGCACGTGGGTAG	-0.21 kcal/mol
TAGGTCACGTGAATGA	0.27 kcal/mol
TAACTCACGTGGTGGA	0.15 kcal/mol
GTGTGCACGTGGGGTG	-0.1 kcal/mol
ATGATCACGTGCGGTG	0.09 kcal/mol
CGTGTCACGTGGGATG	-0.09 kcal/mol
CTAGGCACGTGTATTT	-0.15 kcal/mol
TGTATCACGTGGTAAT	0.07 kcal/mol
TAATACACGTGCTTGT	0.07 kcal/mol
AGGGTCACGTGTATCG	0.13 kcal/mol
GTCGACACGTGGGTGT	-0.04 kcal/mol
AGGTGCACGTGTGGCC	-0.08 kcal/mol
CAATACACGTGTTTTT	0.16 kcal/mol
TAGTTCACGTGGCCGG	0.06 kcal/mol
GTTTTCACGTGAGTGG	0.38 kcal/mol
TTGTGCACGTGGCCGG	-0.12 kcal/mol
TGGAGCACGTGGGAGG	-0.04 kcal/mol
TGGAGCACGTGTTCTT	-0.05 kcal/mol
TTTCGCACGTGAGGTA	0.19 kcal/mol
TGAGCCACGTGGGAGC	-0.06 kcal/mol
TGGCACACGTGGATGT	0.13 kcal/mol
GATGACACGTGTATGT	0.18 kcal/mol

Sequence	relative binding free energy
GTCGTCACGTGAGGGT	0.29 kcal/mol
TCATGCACGTGTTAAG	0.02 kcal/mol
TGAGGCACGTGTAGGT	-0.07 kcal/mol
CTTGTCACGTGCTGGC	0.11 kcal/mol
ATTGGCACGTGTCTTT	-0.2 kcal/mol
ACGAGCACGTGTTGGT	-0.07 kcal/mol
TGGGCCACGTGTGTTA	-0.05 kcal/mol
TTGTACACGTGGTTAC	0.05 kcal/mol
CAGTTCACGTGTGTGG	0.22 kcal/mol
AAGTTCACGTGTGTTG	0.35 kcal/mol
GATTTCACGTGATGAT	0.4 kcal/mol
TGAGGCACGTGTGAGG	-0.05 kcal/mol
AAAGGCACGTGTTTAG	-0.26 kcal/mol
AATTGCACGTGGTAAG	-0.08 kcal/mol
GATGGCACGTGGCAAG	-0.1 kcal/mol
TAATGCACGTGTATCG	-0.02 kcal/mol
GAGGTCACGTGGAAGA	0.23 kcal/mol
CTATTCACGTGAGAGT	0.3 kcal/mol
AGGAGCACGTGCGGTG	-0.06 kcal/mol
GAGCGCACGTGGGGAA	-0.15 kcal/mol
ATATGCACGTGAGTTA	0 kcal/mol
ATTGGCACGTGTTTAA	-0.14 kcal/mol
TGCAGCACGTGGTAGA	-0.06 kcal/mol
